Measurements reported in the supplement of paper PMC11741623.
This is one part of the list. Interaction screen of human proteins with wild-type SARS-CoV-2 proteins by split-DHFR complementation in yeast, 1 µg/mL methotrexate. Value = fitness of the pair (three or more lineages) minus that of the viral protein without a human partner, on a scale set by negative (0) and fused positive (1) controls, mean of up to three cultures; higher = more likely to interact. Active = false discovery rate below 0.05 (one-sided t-test) in at least one culture. Nearly all pairs are not hits, and differences among them are mostly noise (correlation between cultures about 0.3); most hits were seen in one culture only. Human sequences are the Swiss-Prot entries looked up by gene name; the clone may be another isoform. NSP2 values were corrected by the authors for a growth advantage. Listed are human proteins with a hit and a random twelfth of the others.

How the values were obtained:
Experiment in all cases: yeast fitness gain over the viral ORF with no human partner (scaled fitness); higher = more likely to interact
[1] = target: SARS-CoV-2 M
Procedure: (§1)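 Split mouse DHFR complementation in pooled diploid yeast: human ORFeome clones carry one fragment and viral ORFs the other; barcoded lineages compete in 1 µg/mL methotrexate and fitness is read by barcode sequencing in up to three cultures.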

[2] = target: SARS-CoV-2 N
Procedure: as §1

[3] = target: SARS-CoV-2 NSP10
Procedure: as §1

[4] = target: SARS-CoV-2 NSP12
Procedure: as §1

[5] = target: SARS-CoV-2 NSP13
Procedure: as §1

[6] = target: SARS-CoV-2 NSP15
Procedure: as §1

[7] = target: SARS-CoV-2 NSP2
Procedure: as §1

[8] = target: SARS-CoV-2 NSP5
Procedure: as §1

[9] = target: SARS-CoV-2 NSP6
Procedure: as §1

[10] = target: SARS-CoV-2 NSP7
Procedure: as §1

[11] = target: SARS-CoV-2 NSP8
Procedure: as §1

[12] = target: SARS-CoV-2 NSP9
Procedure: as §1

[13] = target: SARS-CoV-2 ORF10
Procedure: as §1

[14] = target: SARS-CoV-2 ORF3A
Procedure: as §1

[15] = target: SARS-CoV-2 ORF3B
Procedure: as §1

[16] = target: SARS-CoV-2 ORF6
Procedure: as §1

[17] = target: SARS-CoV-2 ORF7A
Procedure: as §1

[18] = target: SARS-CoV-2 ORF7B
Procedure: as §1

[19] = target: SARS-CoV-2 ORF8
Procedure: as §1

[20] = target: SARS-CoV-2 ORF9B
Procedure: as §1

[21] = target: SARS-CoV-2 ORF9Bwu (the 73-codon ORF)
Procedure: as §1

[22] = target: SARS-CoV-2 S
Procedure: as §1

[23] = target: SARS-CoV-2 NSP1
Procedure: as §1

[24] = target: SARS-CoV-2 NSP14
Procedure: as §1

[25] = target: SARS-CoV-2 NSP16
Procedure: as §1

[26] = target: SARS-CoV-2 NSP4
Procedure: as §1

Measured: yeast fitness gain

B1: GABRD, O14764 (protein)
chain: MDAPARLLAPLLLLCAQQLRGTRAMNDIGDYVGSNLEISWLPNLDGLIAGYARNFRPGIGGPPVNVALALEVASIDHISEANMEYTMTVFLHQSWRDSRLSYNHTNETLGLDSRFVDKLWLPDTFIVNAKSAWFHDVTVENKLIRLQPDGVILYSIRITSTVACDMDLAKYPMDEQECMLDLESYGYSSEDIVYYWSESQEHIHGLDKLQLAQFTITSYRFTTELMNFKSAGQFPRLSLHFHLRRNRGVYIIQSYMPSVLLVAMSWVSFWISQAAVPARVSLGITTVLTMTTLMVSARSSLPRASAIKALDVYFWICYVFVFAALVEYAFAHFNADYRKKQKAKVKVSRPRAEMDVRNAIVLFSLSAAGVTQELAISRRQRRVPGNLMGSYRSVGVETGETKKEGAARSGGQGGIRARLRPIDADTIDIYARAVFPAAFAAVNVIYWAAYAM
inactive: [1] -0.000176 | [2] 0.0536 | [3] 0.0382 | [4] -0.017 | [5] -0.062 | [6] -0.0669 | [7] -0.0264 | [8] 0.0139 | [9] -0.0388 | [10] -0.0262 | [11] -0.0637 | [12] 0.0304 | [13] -0.0504 | [14] -0.0394 | [15] -0.0163 | [16] 0.0699 | [17] 0.0572 | [18] 0.0107 | [19] 0.0231 | [20] -0.0511 | [21] -0.0627 | [22] 0.0927

B2: FTSJ2, Q9UI43 (protein)
chain: MAGYLKLVCVSFQRQGFHTVGSRCKNRTGAEHLWLTRHLRDPFVKAAKVESYRCRSAFKLLEVNERHQILRPGLRVLDCGAAPGAWSQVAVQKVNAAGTDPSSPVGFVLGVDLLHIFPLEGATFLCPADVTDPRTSQRILEVLPGRRADVILSDMAPNATGFRDLDHDRLISLCLTLLSVTPDILQPGGTFLCKTWAGSQSRRLQRRLTEEFQNVRIIKPEASRKESSEVYFLATQYHGRKGTVKQ
inactive: [1] 0.0191 | [3] -0.0744 | [4] -0.0423 | [5] -0.137 | [6] 0.00911 | [8] -0.00545 | [9] 0.0152 | [10] 0.0917 | [11] 0.00569 | [12] 0.145 | [15] -0.0439 | [16] -0.142 | [17] -0.0758 | [18] -0.0547 | [19] 0.0355 | [20] 0.0124 | [21] 0.0165 | [22] -0.0899

B3: SLC35B3, Q9H1N7 (protein)
chain: MDLTQQAKDIQNITVQETNKNNSESIECSKITMDLKFNNSRKYISITVPSKTQTMSPHIKSVDDVVVLGMNLSKFNKLTQFFICVAGVFVFYLIYGYLQELIFSVEGFKSCGWYLTLVQFAFYSIFGLIELQLIQDKRRRIPGKTYMIIAFLTVGTMGLSNTSLGYLNYPTQVIFKCCKLIPVMLGGVFIQGKRYNVADVSAAICMSLGLIWFTLADSTTAPNFNLTGVVLISLALCADAVIGNVQEKAMKLHNASNSEMVLYSYSIGFVYILLGLTCTSGLGPAVTFCAKNPVRTYGYAFLFSLTGYFGISFVLALIKIFGALIAVTVTTGRKAMTIVLSFIFFAKPFTFQYVWSGLLVVLGIFLNVYSKNMDKIRLPSLYDLINKSVEARKSRTLAQTV
inactive: [1] 0.0376 | [3] 0.0341 | [4] 0.00933 | [5] -0.0919 | [7] -0.0969 | [8] -0.047 | [9] -0.0709 | [10] -0.0643 | [11] -0.0843 | [12] 0.0731 | [13] 0.00907 | [15] 0.187 | [16] -0.0628 | [17] -0.0289 | [18] 0.0132 | [19] 0.0523 | [20] 0.00701 | [21] 0.00499 | [22] -0.0317

B4: PLEKHF1, Q96S99 (protein)
chain: MVDHLANTEINSQRIAAVESCFGASGQPLALPGRVLLGEGVLTKECRKKAKPRIFFLFNDILVYGSIVLNKRKYRSQHIIPLEEVTLELLPETLQAKNRWMIKTAKKSFVVSAASATERQEWISHIEECVRRQLRATGRPPSTEHAAPWIPDKATDICMRCTQTRFSALTRRHHCRKCGFVVCAECSRQRFLLPRLSPKPVRVCSLCYRELAAQQRQEEAEEQGAGSPGQPAHLARPICGASSGDDDDSDEDKEGSRDGDWPSSVEFYASGVAWSAFHS
inactive: [1] 0.00204 | [23] -0.0526 | [3] -0.0472 | [4] 0.0771 | [5] -0.0497 | [24] 0.0278 | [6] -0.0237 | [25] 0.0408 | [7] -0.0473 | [26] -0.0427 | [8] 0.0113 | [9] 0.0324 | [10] 0.0304 | [11] -0.0643 | [12] -0.118 | [13] 0.00213 | [14] 0.0467 | [15] 0.00128 | [16] 0.0121 | [17] 0.067 | [18] 0.0267 | [19] 0.0232 | [20] 0.0512 | [21] 0.00962 | [22] 0.0409
